We go through 39 variants from the RNAGym collection of RNA variant scans (doi:10.7554/elife.90254).

Read counts are not given, so values of variants with three or more changes are uncertain.

B1: LINE1-full (parent)
chain: UACGUAGGUGGUUUUCCCCUGAUAGUGCUAAGGGGGCCUGGAAGUUUGGACUGGGCAGAGCUCAACACAGCGUGGCAAAGUGGCUGUGGCUAGACUGCCUCUCUGGAUUCCUCGUCACUCAGCAGGGCAUCUCUGAGAGAAAUGCC

In the data set the parent is B1. As to the kind of experiment: self-cleavage, relative activity (ratio to wild type); higher = more cleavage; in vitro, sequencing; the parent is a self-cleaving ribozyme.
As for UACGUAGGUGGUUUUCCCCUGAAAGUGCUAAGGGGGCCUGGAAGUUUGGACUGGGCAGAGCUCAACACAGCGUGGCAAGGUGGCUGUGGCUAGACUGCCUCUCUGGAUUCCUCGUCACUCAGCAGGGCAUCUCUGAGAGAAGUGCC, the self-cleavage is 1.28.
Consider UACGUAGGUGGUUUUCCCCUGAUAGUGCUGAGGGGGCCUGGAAGUUUGGACUAGGCAGAGCCCAACACAGCGUGGCAAAGUGGCUGUGGCUAGACUGCCUCUCUGGAUUCCUCGUCACUCAGCAGGGCACCUCUGAGAGAAAUGCC, for which the self-cleavage was determined as 0.06.
With UACGUAGGUGGUUUUCCCCUGAUAGUGCUAAGGGGGCCUGGAAGUUUGGACUGGGCAGAGCUCAACACAGCGUGGCGAAGUGGCUGUGGCUAGACUGCCUCCCUGGAUUCCUCGUCACUCAGCUGGGCAUCUCUGAGAGAAAUGCC, the self-cleavage was 2.24.
The result for UACGUAGGUGGUUUUCCCCUGAUAGUGCUAAGGGGGCCUGGAAGUUUGGACUGGGCAGAGCUCGACACAGCGUGGCAAAGUGGCUGUGGCUAGACUGCCUCUCUGGAUUCCUCGCCACUCAGCGGGGCAUCUCUGAGAGAAAUGCC reads 0.29; that for UACGUAGGUGGUUUUCCCCUGAUAGUGCUAAGGGGGCCUGGAAGUUAGGACUGGGCAGAGCUCAACACAGCGUGGCAAAGUGGCUGUGGCUAGACUGCCUCUCUGGAUUCCUCGUCGCUCAGCAGGGCAUCUCUGAGAGGAAUGCC, 1.02.
In the case of UACGUAGGUGGUUCUCCCCUGAUAGUGCUAAGGGGGCCUGGAAGUUUGGACUGGGCAGAGCUCAACACAGCGUGGCAAAGUGGCUGUGGCCAGACUGCCCCUCUGGAUUCCUCGACACUCAGCAGGGCAUCUCUGAGAGAAAUGCC, the self-cleavage came to 0.48.
The result for UACGUAGGUGGUUUUCCCCUGAUAGCGCUAAGGGGGCCUGGAAGUCUGGACUGGGCAGAGAUCAACACAGCGUAGCAAAGUGGCUGUGGCUAGACUGCCUCUCUGGAUUCCUCGUCACUCAGCAGGGCAUCUCCGAGAGAAAUGCC reads 0; that for UACGUAGGUGGUUUUCCCCUGAUAGUGCUAAGGGAGCCUGGAAGUUUGGGCUGGGCAGAGCUCAACACAGCGUGGCAGAGUGGCUGUGGCUAGACUGCCUCUCUGGAUUCCUCGUCACUCAGCAGGGCAUCUCUGAGAGAAAUGCC, 0.08.
With UACGUAGGUGGUUUUCCCCUGGUAGUGCUAAGGGGGCCUGGAAGUUUGGACUGGGCAGAGCUCAACACGGCGUGGCAAAGUGGCUGUGGCUAGACUGCCUCUCUGGAUUCAUCGUCACUCAGCAGGGCAUCUCUGAGAGAGAUGCC, the self-cleavage was determined as 0.9.
The same measure for UACGUAGGUGGUUUUCCCCUGAUAGUGCUAAGGGGGCCUGGGAGUUUGGACUGGGCAGAGCUCAACACAGCGUGGCAGAGUGGCUGUGGCUAGACUGCCUCUCAGGAUUCCUCGUCACUCUGCAGGGCAUCUCUGAGAGAAAUGCC: 0.97; for UACGUAGGUGGUUUUCCCCUGAUAGUGCUAAAGGGGCCUGGAAGUUUGGACUGGGCAGAGCUCAACACAGCGUGGCAAAGUGGCUGUGGCUAGACUGCCUCUCUGGAUUCCUCGUCACUCAGCAGGGCAUCUCCGAGAGAAACGCC: 1.48.
The same measure for UACGUAGGUGGUUUUCCCCUGAUAGUGCUAAAGGGGCCUGGAAGUUUGGACUGGGCAGAGCUCAACACAGCGUGGCAAAGUGGCUGUGGCUAGACUGCCUCUCUGGAUUCCUCGUCGCUCAGCAGAGCAUCUCUGAGAGAAAUGCC: 1.47; for UACGUAGGUGGUUUUCCCCUGAUAGUGCCAAGGGGGCCUGGAAGUUUGGACUGGGCAGAGCCCAACACAGCGUGGCAAAGUGGCUGUGGCUAGACUGCCUCUCUGGAUUCCUCGUCACUCAGCAGGGCAUCUCUGAGAGAGAUGCC: 0.1; for UACGCAGGUGGCUUUCCCCUGAUAGUGCUAAGGGGGCCUGGAAGUUUGGACUGGGCAGAGCUCAACACAGUGUGGCAAAGUGGCUGUGGCUAGACUGCCUCUCUGGAUUCCUCGUCACUCAGCAGGGCAUCUCUGGGAGAAAUGCC: 0.94.
The result for CGCGUAGGAGGUUUUCCCCUGAUAGUGCUAAGGGGGCCUGGAAGUUUGGACUGGGCAGAGCUCAACACAGCGUGGCAAAGUGGCUGUGGCUAGACUACCUCUCUGGAUUCCUCGUCACUCAGCAGGGCACCUCUGAGAGAAAUGCC reads 0.23.
Regarding UACGUAGGUGGUUUCCCCCUGAUAGUGCUAAGGGGGCCUGGAAGUUUGGACCGGGCAGAGCUCAACACAGCGUGGCAAAGUGGCUGUGGCUAGACUGCCUCUCUGGAUUCCUCGCCACUCAGCAGGGCAUCUCUGAGAGAAAUGCC, the self-cleavage was determined as 1.69.
The result for UACGAAGGUGGUUUUCCCCUGAUAGUGCUAAAGGGGCCUGGAAGUUUGGACUGGGCGGAGCUCAACACAGCGUGGCAAAGUGGCUGUGGCUAGACUGCCUCUCUGGAUUCCUCGUCACUCAGCAGGGCAUCUCUGAGAGAAACGCC reads 0.
The result for UACGUAGGUGGUUCUCCCCUGAUAGUGCUAAGGGGGCCUGGAAGUUUGGACUGGGCAGAGCUCCACACAGCGUGGCAAAGUGGCUGUGGCUAGACUGCCUCUCUGGAUUCCUCGUCACUCAGCAGGGCAUCUCUGAGAGGAAUGCC reads 0.4; that for UACGUAGGUGGUUUUCCCCUGAUAGUGCUAAGGGGGCCUGGAAGUUCGGACUGGGCAGAGCUCAACACAGCGUGGCAAAGUGGCUGUGGCUAGACUGCCUCUCUGGGCUCCUCGUCACUCAGCAGGGCAUCUCUGAGAGAAAUGCC, 2.3; that for UACGUAGGUGGUUCUCCCCUGAUAGUGCUAAGGGGGCCUGGAAGUUUGGACGGGGCAGAGCUCAGCACAGCGUGGCAAAGUGGCUGUGGCUAGACUGCCUCUCUGGAUUCCUCGUCACUCAGCAGGGCAUCUCUGAGAGAAAUGCC, 0.09.
Consider UACGUAGGUGGUUUUCCCCUGAUAGUGCUAGGGGGGCCUGGAAGUUUGGACUGGGCAGAGCUCAACCCAGCGUGGCAAAGCGGCUGUGGCUAGACUGCCUCUCUGGAUUCCUCGUCACUCAGCAGGGCAUCUCUGAGAGAAAUGCC, for which the self-cleavage turned out to be 0.
The same measure for UACGUAGGUGGAUUUCCCCUGAUAGUGCUAAGGGGGCCUGGAAGUUUGGACUGGGCAGAGCUCAACACAGCGUGGCAAAGCGGCUGUGGCUAGGCUGCCUCUCUGGAUUCCUCGUCACUCUGCAGGGCAUCCCUGAGAGAAAUGCC: 0.
The same measure for UACGUAGGUGGUUUUCCCUUGAUAGCGCUAAGGGGGCCUGGAUGUUUGGACUGGGCAGAGCUCAACACAGCGUGGCAAAGUGGCUGUGGCUAGACUGCCUCUCUGGAUUCCUCGUCACUCAGCAGGGCAUCUCUGAGAGAAAUGCC: 1.44.
The result for UACGUAGGUGGUUUUCCCCUGAUAGUGCUAAGGGGGCCUGGAAGUUUGGACUGGGCAGAGCUCAACACAGCGUGGCAAAGUGGCUGUGGCUAGACUGCCUCUCUGGAUUCCUCGUCACUCAGCUGGGCGUCUCUGAGAGGAAUGCC reads 0.74.
In the case of UACGUAGGUGGUUUUCCCAUGAUAGUGCUAAGGGGGCCUGGAAGUUUGGCCUGGGCAGAGCUCAACACAGCGAGGCAAAGUGGCUGUGGCUAGACGGCCUCUCUGGAUUCCUCGUCACUCAGCAGGGCAUCUCUGAGAGAAAUGCC, the self-cleavage was 0.19.
The same measure for UACGUAGGUGGUUUUCCCCUGAUAGUGCUAAGGGGGCCUGGAAGUUUGGACUGGGCAGAGCUCAGCACAGCGUGGCAAAGUGGCUGUGGCUAGACUGCCUCUCUGGAUUCCUCGUCACUCAGCGGGGCAUCUCUGAGAGAGAUGCC: 0.
For the variant UACGUAGGUGGUUUCCCCUCGAUAGUGCUAAGGGGGCCUGGAAGUUUGGACUGGGCAGAGCUCAACACAGCGUGGCAAAGUGGCUGUGGCUAGACUGCCUCCCUGGAUUCCUCGUCACUCAGCAGGGGAUCUCUGAGAGAAAUGCC, the self-cleavage was 1.42.
The result for UACGUAGGUGGUUUUCCCCUGAUAGUGCUAAGGGGGCCCGGAAGUUUGGACUGGGCAGAGCUCAACACAGCGUGGCAAAGUGGCUGUGGCUAGACUGCCUCUCUGGAUCCCUCGUCACUCAGCAGGGCAUCUCUGGGAGAAGUGCC reads 0.74; that for UACGUAGGUGGUUUUCCCCUGAUAGUGCUAAGGGGGCCUGGAUGUUUGGACUGGGCAGAGCUCAACACAGCGUGGCAAAGUGGCUGUGGCUAGACUGCCUCUCUGGAUUUCUCGACACUCAGCAGGGCAUCUCUGAGAGAAAUGCC, 1.26; that for UACGUAGGUGGUUUUCCCCUGAUAGUGCUAAGGGGGCCUGGAAGUUUGGACUGGGCAGAGCACAACACAGCGUGGCUAAGUGGCCGUGGCCAGACCGCCUCUCUGGAUUCCUAGUCACUCAGCAGGGCAUCUCUGAGAGAAAUGCC, 0.
The same measure for UACGUAGGUGGUUUUCCCCUGAUAGUGCUAAGGGGGCCUGGAAGUUUGGACUGGGCAGAGCUCAACACAGCGUGGCUAAGUGGCUGUGGCUAGACUGCCUCUCUGAAUUCCUCGUCACUCAGCAGGGCUUCUCUGAGAGAAAUGCC: 1.46; for UACGUAGGUGGUUUUCCCCUGGUAGUGCUAAGGGGGCCUGGAAGUUUGGACUGGGCAGAGCUCAACACAGCGUGGCAAAGUGGCUGUGGCUAGACUGCCUCUCUGGAUUCCUCGUCACUCAGCAGGGCAUCUCUGAGAGAACCGCC: 1.59.
The same measure for UACGUAGGUGGGUUUCCCCUGAUAGUGCUAAGGGGGCCUGGAAGUUUGGACUGGGCAGAGCUCAACACAGCGUGGCAAAGUGGCUGUAGCUAGACUGCCUCUCUGGCUUCCUCGUCACUCAGCAGGGCAUCUCUGAGAGAAAUGCC: 0; for UUCGUAGGUGGUUUUCCCCUGAUAGUGCUAAGGGGGCCUGGAAGUUUGGACUGGGCAGAGCUCAUCACAGCGUGGCAAAGAGGCUGUGGCUAGACUGUCCCUCUGGAUUCCUCGUCACUCAGCAGGGCAUCUCUGAGAGAAAUGCC: 0.13.
Turning to UACGUAGGUGGUUUUCCCCUGAUAGUGCUAAGGGGGCCUGGAAGUUAGGACUGGGUAGAGCUCAACACAGCGUGGCAUAGUGGCUGUGGCUAGACUGCCUCUCUGGAUUCCUCGUCACUCAGCAGGGCAUCUCUGAGAGGAAUGCC, the self-cleavage amounted to 0.24.
Regarding UACGUAGGUGGAUCUCCCCUGAUAGUGCUAAGGGGGCCUGGAAGUUUGGACUGGGCAGAGCUCAGCACAGCGUGGCAAAGUGGCUGUGGCUAGACUGCCUCUCUGGAUUCCUCGUCACUCAGCAGGGCAUCUCUGAGAGAAAUGCC, the self-cleavage is 0.34.
The same measure for UACGUAGGUGGUUUUCCCCUGAUAGAGCUAAGGGGGCCUGGAAGUUUGGACUGGGCAGAGCUCAACACAGCGUGGCAAAGUGGCUGUGGCUAGACCGCCUCUCCGGAUUCCUCGUCACUCAGCAGGGCAUCUCUGAGAGAAAUGCC: 0; for UACGUAGGUGGCUUUCCCCUGAUAGUGCUAAGGGGACCAGGAAGUUUGGACUGGGCAGAGCUCAGCCCAACGUGGCAAAGUGGCUGUGGCUAGACUGCCUCUCUGGAUUCCUCGUCACUCAGCAGGGCAUCUCUGAGAGAAAUGCC: 0.06.
As for UACGUAGGUGGUUUUCCCCUGAUAGUGCUAAGGGGGCCUGGAAGUUUGGACUGGGCAGAGCUCAACACAGCGUGGCAAAGUGGCUGACGCUAGAGAGCCUCUCUGGAUUCCUCGUCACUCAGCAGGGCACCUCUGAGUGAAACGCC, the self-cleavage came out at 0.04.
